# Measurements as given in the supplement of paper PMC8728848.
# Some of the results follow.
# B1: Langerin (Homo sapiens), Q9UJ71 (protein)
# chain: STLNAQIPELKSDLEKASALNTKIRALQGSLENMSKLLKRQNDILQVVSQGWKYFKGNFYYFSLIPKTWYSAEQFCVSRNSHLTSVTSESEQEFLYKTAGGLIYWIGLTKAGMEGDWSWVDDTPFNKVQSARFWIPGEPNDAGNNEHCGNIKAPSLQAWNDAPCDITFLFICKRPYVPSEP
# What was measured:
# Assay in all cases: glycan array binding signal (z-score within array); higher = stronger binding
# Conditions in all cases: glycan notation: IUPAC condensed, linker removed; mutation: N288D, K313I
# [1] = biological target: Gal(b1-4)GlcNAc(b1-3)Gal(b1-4)GlcNAc(b1-2)Man(a1-3)[Gal(b1-4)GlcNAc(b1-3)Gal(b1-4)GlcNAc(b1-2)Man(a1-6)]Man(b1-4)GlcNAc(b1-4)[Fuc(a1-6)]GlcNAc
# Method in brief: (§1)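 The Consortium for Functional Glycomics database supplied 3228 glycan arrays, of which those lacking an available protein sequence were dropped. The binding signal, a within-array Z-score, was averaged across arrays of the same protein sequence and across linkers. Negative scores can be read as non-binding.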
# [2] = biological target: Gal(b1-4)GlcNAc(b1-3)Gal(b1-4)GlcNAc(b1-2)[Gal(b1-4)GlcNAc(b1-3)Gal(b1-4)GlcNAc(b1-6)]Man(a1-6)[Gal(b1-4)GlcNAc(b1-3)Gal(b1-4)GlcNAc(b1-2)Man(a1-3)]Man(b1-4)GlcNAc(b1-4)GlcNAc
# Method in brief: as §1
# [3] = biological target: Gal(b1-4)GlcNAc(b1-3)Gal(b1-4)GlcNAc(b1-2)[Gal(b1-4)GlcNAc(b1-3)Gal(b1-4)GlcNAc(b1-6)]Man(a1-6)[Gal(b1-4)GlcNAc(b1-3)Gal(b1-4)GlcNAc(b1-2)Man(a1-3)]Man(b1-4)GlcNAc(b1-4)[Fuc(a1-6)]GlcNAc
# Method in brief: as §1
# [4] = biological target: Gal(b1-4)GlcNAc(b1-3)Gal(b1-4)GlcNAc(b1-3)Gal(b1-4)GlcNAc
# Method in brief: as §1
# [5] = biological target: Gal(b1-4)GlcNAc(b1-3)Gal(b1-4)GlcNAc(b1-3)Gal(b1-4)GlcNAc(b1-2)Man(a1-3)[Gal(b1-4)GlcNAc(b1-3)Gal(b1-4)GlcNAc(b1-3)Gal(b1-4)GlcNAc(b1-2)Man(a1-6)]Man(b1-4)GlcNAc(b1-4)GlcNAc
# Method in brief: as §1
# [6] = biological target: Gal(b1-4)GlcNAc(b1-3)Gal(b1-4)GlcNAc(b1-3)Gal(b1-4)GlcNAc(b1-2)Man(a1-3)[Gal(b1-4)GlcNAc(b1-3)Gal(b1-4)GlcNAc(b1-3)Gal(b1-4)GlcNAc(b1-2)Man(a1-6)]Man(b1-4)GlcNAc(b1-4)[Fuc(a1-6)]GlcNAc
# Method in brief: as §1
# [7] = biological target: Gal(b1-4)GlcNAc(b1-3)Gal(b1-4)GlcNAc(b1-3)Gal(b1-4)GlcNAc(b1-2)[Gal(b1-4)GlcNAc(b1-3)Gal(b1-4)GlcNAc(b1-3)Gal(b1-4)GlcNAc(b1-6)]Man(a1-6)[Gal(b1-4)GlcNAc(b1-3)Gal(b1-4)GlcNAc(b1-3)Gal(b1-4)GlcNAc(b1-2)Man(a1-3)]Man(b1-4)GlcNAc(b1-4)[Fuc(a1-6)]GlcNAc
# Method in brief: as §1
# [8] = biological target: Gal(b1-4)GlcNAc(b1-3)Gal(b1-4)GlcNAc(b1-3)Gal(b1-4)GlcNAc(b1-3)Gal(b1-4)GlcNAc(b1-2)Man(a1-3)[Gal(b1-4)GlcNAc(b1-3)Gal(b1-4)GlcNAc(b1-3)Gal(b1-4)GlcNAc(b1-3)Gal(b1-4)GlcNAc(b1-2)Man(a1-6)]Man(b1-4)GlcNAc(b1-4)GlcNAc
# Method in brief: as §1
# [9] = biological target: Gal(b1-4)GlcNAc(b1-3)Gal(b1-4)GlcNAc(b1-3)Gal(b1-4)GlcNAc(b1-3)Gal(b1-4)GlcNAc(b1-2)Man(a1-3)[Gal(b1-4)GlcNAc(b1-3)Gal(b1-4)GlcNAc(b1-3)Gal(b1-4)GlcNAc(b1-3)Gal(b1-4)GlcNAc(b1-2)Man(a1-6)]Man(b1-4)GlcNAc(b1-4)[Fuc(a1-6)]GlcNAc
# Method in brief: as §1
# [10] = biological target: Gal(b1-4)GlcNAc(b1-3)Gal(b1-4)GlcNAc(b1-3)Gal(b1-4)GlcNAc(b1-3)Gal(b1-4)GlcNAc(b1-2)[Gal(b1-4)GlcNAc(b1-3)Gal(b1-4)GlcNAc(b1-3)Gal(b1-4)GlcNAc(b1-3)Gal(b1-4)GlcNAc(b1-6)]Man(a1-6)[Gal(b1-4)GlcNAc(b1-3)Gal(b1-4)GlcNAc(b1-3)Gal(b1-4)GlcNAc(b1-3)Gal(b1-4)GlcNAc(b1-2)Man(a1-3)]Man(b1-4)GlcNAc(b1-4)[Fuc(a1-6)]GlcNAc
# Method in brief: as §1
# [11] = biological target: Gal(b1-4)GlcNAc(b1-3)Gal(b1-4)GlcNAc(b1-3)Gal(b1-4)GlcNAc(b1-3)Gal(b1-4)GlcNAc(b1-3)Gal(b1-4)GlcNAc(b1-2)Man(a1-3)[Gal(b1-4)GlcNAc(b1-3)Gal(b1-4)GlcNAc(b1-3)Gal(b1-4)GlcNAc(b1-3)Gal(b1-4)GlcNAc(b1-3)Gal(b1-4)GlcNAc(b1-2)Man(a1-6)]Man(b1-4)GlcNAc(b1-4)GlcNAc
# Method in brief: as §1
# [12] = biological target: Gal(b1-4)GlcNAc(b1-3)Gal(b1-4)GlcNAc(b1-3)Gal(b1-4)GlcNAc(b1-3)Gal(b1-4)GlcNAc(b1-3)Gal(b1-4)GlcNAc(b1-2)Man(a1-3)[Gal(b1-4)GlcNAc(b1-3)Gal(b1-4)GlcNAc(b1-3)Gal(b1-4)GlcNAc(b1-3)Gal(b1-4)GlcNAc(b1-3)Gal(b1-4)GlcNAc(b1-2)Man(a1-6)]Man(b1-4)GlcNAc(b1-4)[Fuc(a1-6)]GlcNAc
# Method in brief: as §1
# [13] = biological target: Gal(b1-4)GlcNAc(b1-3)Gal(b1-4)GlcNAc(b1-3)Gal(b1-4)GlcNAc(b1-3)Gal(b1-4)GlcNAc(b1-3)Gal(b1-4)GlcNAc(b1-2)[Gal(b1-4)GlcNAc(b1-3)Gal(b1-4)GlcNAc(b1-3)Gal(b1-4)GlcNAc(b1-3)Gal(b1-4)GlcNAc(b1-3)Gal(b1-4)GlcNAc(b1-6)]Man(a1-6)[Gal(b1-4)GlcNAc(b1-3)Gal(b1-4)GlcNAc(b1-3)Gal(b1-4)GlcNAc(b1-3)Gal(b1-4)GlcNAc(b1-3)Gal(b1-4)GlcNAc(b1-2)Man(a1-3)]Man(b1-4)GlcNAc(b1-4)[Fuc(a1-6)]GlcNAc
# Method in brief: as §1
# [14] = biological target: Gal(b1-4)GlcNAc(b1-3)Gal(b1-4)GlcNAc(b1-3)Gal(b1-4)GlcNAc(b1-3)Gal(b1-4)GlcNAc(b1-3)Gal(b1-4)GlcNAc(b1-3)Gal(b1-4)GlcNAc(b1-2)Man(a1-3)[Gal(b1-4)GlcNAc(b1-3)Gal(b1-4)GlcNAc(b1-3)Gal(b1-4)GlcNAc(b1-3)Gal(b1-4)GlcNAc(b1-3)Gal(b1-4)GlcNAc(b1-3)Gal(b1-4)GlcNAc(b1-2)Man(a1-6)]Man(b1-4)GlcNAc(b1-4)GlcNAc
# Method in brief: as §1
# [15] = biological target: Gal(b1-4)GlcNAc(b1-3)Gal(b1-4)GlcNAc(b1-3)GalNAc
# Method in brief: as §1
# [16] = biological target: Gal(b1-4)GlcNAc(b1-3)Gal(b1-4)GlcNAc(b1-3)[Gal(b1-4)GlcNAc(b1-3)Gal(b1-4)GlcNAc(b1-6)]GalNAc
# Method in brief: as §1
# [17] = biological target: Gal(b1-4)GlcNAc(b1-3)Gal(b1-4)GlcNAc(b1-6)[Gal(b1-3)]GalNAc
# Method in brief: as §1
# [18] = biological target: Gal(b1-4)GlcNAc(b1-3)Gal(b1-4)[Fuc(a1-3)]GlcNAc(b1-3)Gal(b1-4)[Fuc(a1-3)]GlcNAc
# Method in brief: as §1
# [19] = biological target: Gal(b1-4)GlcNAc(b1-3)GalNAc
# Method in brief: as §1
# [20] = biological target: Gal(b1-4)GlcNAc(b1-3)[Fuc(a1-3)GlcNAc(b1-6)]Gal(b1-4)Glc
# Method in brief: as §1
# [21] = biological target: Gal(b1-4)GlcNAc(b1-3)[Gal(b1-4)GlcNAc(b1-6)]Gal(b1-4)GlcNAc
# Method in brief: as §1
# [22] = biological target: Gal(b1-4)GlcNAc(b1-3)[GlcNAc(b1-6)]Gal(b1-4)GlcNAc
# Method in brief: as §1
# [23] = biological target: Gal(b1-4)GlcNAc(b1-6)Gal(b1-4)GlcNAc
# Method in brief: as §1
# [24] = biological target: Gal(b1-4)GlcNAc(b1-6)GalNAc
# Method in brief: as §1
# [25] = biological target: Gal(b1-4)GlcNAc(b1-6)[Gal(b1-3)]GalNAc
# Method in brief: as §1
# [26] = biological target: Gal(b1-4)GlcNAc(b1-6)[Gal(b1-4)GlcNAc(b1-3)]GalNAc
# Method in brief: as §1
# [27] = biological target: Gal(b1-4)GlcNAc6P
# Method in brief: as §1
# [28] = biological target: Gal(b1-6)Gal
# Method in brief: as §1
# [29] = biological target: Gal3S(b1-3)GalNAc
# Method in brief: as §1
# [30] = biological target: Gal3S(b1-3)GlcNAc
# Method in brief: as §1
# [31] = biological target: Gal3S(b1-3)[Fuc(a1-4)]GlcNAc
# Method in brief: as §1
# [32] = biological target: Gal3S(b1-4)Glc
# Method in brief: as §1
# [33] = biological target: Gal3S(b1-4)Glc6S
# Method in brief: as §1
# [34] = biological target: Gal3S(b1-4)GlcNAc
# Method in brief: as §1
# [35] = biological target: Gal3S(b1-4)[Fuc(a1-3)]Glc6S
# Method in brief: as §1
# [36] = biological target: Gal3S(b1-4)[Fuc(a1-3)]GlcNAc
# Method in brief: as §1
# [37] = biological target: Gal3S(b1-4)[Fuc(a1-3)]GlcNAc6S
# Method in brief: as §1
# [38] = biological target: Gal3S4S(b1-4)GlcNAc
# Method in brief: as §1
# [39] = biological target: Gal3S6S(b1-4)GlcNAc
# Method in brief: as §1
# [40] = biological target: Gal3S6S(b1-4)GlcNAc6S
# Method in brief: as §1
# [41] = biological target: Gal4S(b1-4)GlcNAc
# Method in brief: as §1
# [42] = biological target: Gal4S6S(b1-4)GlcNAc
# Method in brief: as §1
# [43] = biological target: Gal6P(b1-4)GlcNAc
# Method in brief: as §1
# [44] = biological target: Gal6S(b1-3)GlcNAc
# Method in brief: as §1
# [45] = biological target: Gal6S(b1-3)GlcNAc6S
# Method in brief: as §1
binder,measurement,setting,value
B1,glycan array binding signal (z-score),[1],0.022
same,glycan array binding signal (z-score),[2],0.277
same,glycan array binding signal (z-score),[3],0.286
same,glycan array binding signal (z-score),[4],-0.349
same,glycan array binding signal (z-score),[5],0.142
same,glycan array binding signal (z-score),[6],0.102
same,glycan array binding signal (z-score),[7],0.208
same,glycan array binding signal (z-score),[8],-0.144
same,glycan array binding signal (z-score),[9],-0.185
same,glycan array binding signal (z-score),[10],0.313
same,glycan array binding signal (z-score),[11],0.257
same,glycan array binding signal (z-score),[12],-0.155
same,glycan array binding signal (z-score),[13],0.74
same,glycan array binding signal (z-score),[14],0.914
same,glycan array binding signal (z-score),[15],-0.157
same,glycan array binding signal (z-score),[16],-0.136
same,glycan array binding signal (z-score),[17],-0.063
same,glycan array binding signal (z-score),[18],-0.228
same,glycan array binding signal (z-score),[19],-0.274
same,glycan array binding signal (z-score),[20],1.04
same,glycan array binding signal (z-score),[21],-0.17
same,glycan array binding signal (z-score),[22],-0.31
same,glycan array binding signal (z-score),[23],-0.271
same,glycan array binding signal (z-score),[24],0.001
same,glycan array binding signal (z-score),[25],0.04
same,glycan array binding signal (z-score),[26],0.151
same,glycan array binding signal (z-score),[27],-0.382
same,glycan array binding signal (z-score),[28],-0.126
same,glycan array binding signal (z-score),[29],-0.187
same,glycan array binding signal (z-score),[30],-0.136
same,glycan array binding signal (z-score),[31],-0.219
same,glycan array binding signal (z-score),[32],-0.16
same,glycan array binding signal (z-score),[33],-0.184
same,glycan array binding signal (z-score),[34],-0.217
same,glycan array binding signal (z-score),[35],0.149
same,glycan array binding signal (z-score),[36],-0.313
same,glycan array binding signal (z-score),[37],-0.1
same,glycan array binding signal (z-score),[38],-0.333
same,glycan array binding signal (z-score),[39],-0.209
same,glycan array binding signal (z-score),[40],-0.143
same,glycan array binding signal (z-score),[41],-0.05
same,glycan array binding signal (z-score),[42],-0.357
same,glycan array binding signal (z-score),[43],-0.295
same,glycan array binding signal (z-score),[44],-0.139
same,glycan array binding signal (z-score),[45],-0.22
